Measurements from PubChem BioAssay AID1347073 (National Center for Advancing Translational Sciences (NCATS), 2019).
The whole screen tested about 45,000 compounds, of which about 200 (0.44%) were called active. Roughly 7% stayed inconclusive and do not appear here. Calls come from the whole dose curve; as a rule, active = well fitted activation curve with a large enough effect; inconclusive = small, poorly fitted or top-dose-only effect; inactive = no such curve, though single readings can be large or run the other way. Some of the results follow.

Test: qHTS of TDP-43 Inhibitors: NCGC Sytravon Library Screen; note: 0% is about no effect; nearly all actives have a fitted effect of over 55% in size
Conditions: yeast TDP-43 toxicity rescue, BacTiter-Glo growth, 24 h; series mostly up to 46.1 µM; growth rescue (activation): at the top concentration
How it was run: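 TDP-43-expressing yeast, pregrown in raffinose, seeded at OD600 0.02 in galactose medium with compound for 24 hr at 30 deg C. Growth read by BacTiter-Glo luminescence, so rescue of toxicity appears as activation.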

Row | Structure (SMILES) | growth rescue (activation)
1 | O=C(CCN1CCCCO1)N1CCCC(Nc2ccc(F)cc2)C1 (stereo not given) | inactive: 6.23%
2 | COc1ccc2c(c1)Cc1sc(NC(=O)c3cccc(F)c3)nc1-2 | inactive: 15.5%
3 | CCOC(=O)c1ccc(NC(=O)C2CC(=O)N(c3ccc(C(C)C)cc3)C2)cc1 (stereo not given) | inactive: 9.95%
4 | CC(=O)ONC(=Nc1ccccc1)c1nonc1N | inactive: -1.25%
5 | Cc1ccc(S(=O)(=O)NCCCOC(=O)Nc2ccncc2)cc1 | inactive: 0.817%
6 | Cc1cccc(-n2c(N)c(C(=O)NCCN3CCOCC3)c3nc4ccccc4nc32)c1 | inactive: 8.47%
7 | COc1ccccc1CNC(=O)c1ccc(-c2ccccc2)cc1 | inactive: 1.19%
8 | Cc1cccc(NC(=O)CCNS(=O)(=O)c2cccc3nonc23)c1 | inactive: -11.1%
9 | O=C(C[n+]1cc(Br)cc(Br)c1)c1ccccc1 | inactive: 2.94%
10 | COc1ccc(OC(C)c2ccc(C#N)c(=O)[nH]2)cc1 (stereo not given) | inactive: 6.47%
11 | CN(C)C(=O)c1cccc(-c2cccc3nccn23)c1 | inactive: -9.65%
12 | CCn1c(C(C)C)n[nH]c1=S | inactive: 1.48%
13 | CCc1nnc(NC(=O)c2cc3c(s2)CCCCC3)s1 | inactive: 13.2%
14 | COc1cccc(C(=O)NCCNC(=O)c2cnccn2)c1 | inactive: -16.5%
15 | COC(=O)[C@H](C)NC(=O)Nc1cccc(Br)c1 | inactive: -6.08%
16 | CC(NC(=O)c1ccccc1Cl)C(=O)NCc1cccs1 (stereo not given) | inactive: 29.9%
17 | Cc1cccc(C)c1OCc1cc(C(=O)N(C)Cc2cc(C3CC3)n[nH]2)no1 | inactive: 20.8%
18 | CC(=O)c1ccc(Nc2nc(C(N)C3CCCCC3)cs2)cc1 (stereo not given) | inactive: 6.19%
19 | COc1ccccc1NC(=O)C(=O)N1CCCC1 | inactive: 23%
20 | COc1ccc(NC(=O)N2CCCC2C(=O)Nc2ccc(C)cc2C)cc1 (stereo not given) | inactive: 9.67%
21 | Cn1c(/C=C/c2ccc([N+](=O)[O-])o2)nc2ccccc2c1=O | inactive: -92.8%
22 | O=C(CSCc1ccc(Cl)cc1)Nc1ccccc1O | inactive: 25.4%
23 | CC(C(=O)NN=C(c1ccccc1)c1ccccc1)N1CCCC1 (stereo not given) | inactive: 5.55%
24 | CCC(CC)C(=O)N(C)c1c(C)nc2c(OCC=C(C)C)cccn12 | inactive: 12.6%
25 | Cn1c2ccccc2c(=O)c2c(=O)n(C3CCCCCC3)c(C3CCCCC3)nc21 | inactive: -3.95%
26 | OCc1ccccc1-c1cnc2cccnn12 | inactive: -1.57%
27 | CCOc1ccc(CCNC(=O)c2[nH]c(C)c(C(C)=O)c2C)cc1OCC | inactive: 12.2%
28 | CC(C)CNC(=O)C1(C)CCCCCN1Cc1ccccc1-c1ccccc1 (stereo not given) | inactive: -7.37%

Row | Structure (SMILES) | growth rescue (activation)
29 | CCOC(=O)Cc1csc(NC(=O)Cc2ccc(Cl)cc2)n1 | inactive: 27.5%
30 | COc1ccc(-c2cc(C(=O)NCC3CCCCC3)[nH]n2)c(C)c1 | inactive: -3.53%
31 | CC(C)c1ccc(CC(=O)N2CCC2(C)C(=O)NS(=O)(=O)c2cccc(OC(F)F)c2)cc1 (stereo not given) | inactive: 12.7%
32 | CC1CN(S(=O)(=O)c2cccc(C(F)(F)F)c2)C(C)N1C(=O)N1CCOCC1 (stereo not given) | inactive: 7.42%
33 | COc1ccc(C(=O)N/C(=C/c2cccs2)C(=O)NC(C)(C)C)cc1OC | inactive: 6.98%
34 | CCOC(=O)C1CCN(CCC(=O)Nc2ccc(F)cc2)CC1 | inactive: 5.31%
35 | COc1cc(C(=O)OCC(=O)Nc2ccc(S(=O)(=O)N3CCCC3)cc2)cc(OC)c1OC | inactive: 0.348%
36 | CCC(=O)NC(=S)Nc1ccc(NC(=O)COc2ccc(Cl)c(C)c2)cc1 | inactive: 24.4%
37 | O=C(c1ccc(Cl)cc1)N(Cc1ccccc1F)N1C(=O)CCCC1=O | inactive: -8.34%
38 | Cc1ccc(-c2nnc3c4ccccc4c(C)nn23)cc1NC(=O)c1ccccc1Cl | inactive: 6%
39 | COc1ccc(N2CC(C(=O)OCC(=O)Nc3ccccc3C)CC2=O)cc1 (stereo not given) | inactive: -0.144%
40 | O=[N+]([O-])c1ccc(/C=C/c2ccc3ccccc3n2)cc1 | inactive: 13%
41 | Cc1ccc(OCC(=O)N2N=C(c3cccnc3)CC2(O)C(F)(F)F)cc1C (stereo not given) | inactive: -20.1%
42 | CCOc1ccc(NC(=O)CSc2nnnn2CC(=O)O)cc1 | inactive: -7.17%
43 | COc1ccc(NC(=O)CN2CCC(Cc3ccccc3)CC2)cc1S(=O)(=O)N1CCOCC1 | inactive: -21.5%
44 | COC(=O)CNc1nc(Cl)nc(Nc2ccc(C)cc2)n1 | inactive: -14.1%
45 | O=C(CCC(=O)NCCO)NCCO | inactive: 7.48%
46 | O=C(NCCOc1ccccc1F)c1cc(F)c(F)cc1Cl | inactive: 13.8%
47 | COc1cc(Cn2c3ccc(NC(=O)CCc4ccccc4)cc3c(=O)n2C)ccc1F | inactive: -8.38%
48 | Cc1cc(C)c(O)c(-c2cc(C(=O)Nc3cccnc3)[nH]n2)c1 | inactive: -11%
49 | COc1cc(C2SCC(=O)N2CCN2CCCCC2)ccc1O (stereo not given) | inactive: -7.85%
50 | CC1(C(=O)NS(=O)(=O)c2ccc(C#N)cc2)CCN1C(=O)Cc1ccc(-c2ccccc2)cc1 (stereo not given) | inactive: 13.9%
51 | CCCCSc1oc(-c2ccco2)nc1S(=O)(=O)c1ccccc1 | inactive: 23.3%
52 | CCOC(=O)N1CCN(C(=O)CN(C)S(=O)(=O)c2ccc3c(c2)c(=O)n(C)c(=O)n3C)CC1 | inactive: 7.77%
53 | O=C(O)CC(C(=O)OCCOc1ccccc1)N1CCOCC1 (stereo not given) | inactive: 29%
54 | Cc1cc(N2C(=O)C(O)=C(C(=O)c3ccc(C)o3)C2c2cccc(Oc3ccccc3)c2)no1 (stereo not given) | inactive: -3%
55 | O=C(C1=NN[C@@H]2C(=O)N(c3cccc(C(F)(F)F)c3)C(=O)[C@H]12)C(c1ccccc1)c1ccccc1 | inactive: 15.5%
